According to PubChem BioAssay (NCI):
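Cells were grown in 96-well plates and exposed to each compound for 48 hours at five concentrations; endpoints were interpolated linearly between bracketing concentrations, or set to the highest concentration if not reached. GI50 marks 50% less growth. Definition used: TGI = concentration required for complete inhibition of growth.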

These compounds were tested on NCI-H322M lung (assay: NCI tumour cell line growth inhibition, 48 h).

| SMILES | GI50 [µM] | TGI [µM] |
| --- | --- | --- |
| N#Cc1c(-c2cccs2)cc(-c2cnccn2)nc1SCC(=O)N/N=C/c1ccccc1 | 4.88 | 21 |
| CN(C)c1ccc(/C=N/Nc2nc(N/N=C/c3ccc(N(C)C)cc3)nc(N3CCCCC3)n2)cc1 | 2.87 | > 100 |
| CC(=C(c1ccc(OCCN2CCCC2)cc1)c1ccc(OCCN2CCCC2)cc1)c1ccc(Cl)cc1 | 2.63 | 4.94 |
